Data as given in PubChem BioAssay AID624417 (National Center for Advancing Translational Sciences (NCATS), 2012).
Screen size: about 410,000 compounds; about 6,400 (1.6%) were called active. Inconclusive results, whose numbers are uncertain, are shown with a selection of clear calls. The call rests on the fitted dose curve; in most records, active means well fitted inhibition curve with a large enough effect; inconclusive means small, poorly fitted or top-dose-only effect; inactive means no such curve, though single readings can be large or run the other way. Potencies of inconclusive entries are left out as doubtful fits.

Target: Glucagon-like peptide 1 receptor (Homo sapiens) (UniProt P43220)
Experiment: qHTS of GLP-1 Receptor Inverse Agonists (Inhibition Mode); further: nearly all actives have a fitted effect of over 55% in size
Conditions: HEK293 GLP-1R CRE-luciferase, luminescence, 24 h, GLP-1R form is constitutively active; activity change, negative = inhibition: at 38.3 µM (top of the series) unless noted
Summary of the method: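 Stable HEK293 clone (constitutively active GLP-1R + cAMP-response luciferase); 200 cells/uL plated, 12 h pre-culture, compound 24 hr, 37 deg C/5% CO2; detection reagent 12 min RT; luminescence.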
On the % scale 0 is the no-effect control and ±100 the full control effect; potency means the concentration at half of the fitted maximal effect; tags describe the fitted curve by direction and shape.

Sequence of UniProt P43220 (P43220 whole entry, looked up): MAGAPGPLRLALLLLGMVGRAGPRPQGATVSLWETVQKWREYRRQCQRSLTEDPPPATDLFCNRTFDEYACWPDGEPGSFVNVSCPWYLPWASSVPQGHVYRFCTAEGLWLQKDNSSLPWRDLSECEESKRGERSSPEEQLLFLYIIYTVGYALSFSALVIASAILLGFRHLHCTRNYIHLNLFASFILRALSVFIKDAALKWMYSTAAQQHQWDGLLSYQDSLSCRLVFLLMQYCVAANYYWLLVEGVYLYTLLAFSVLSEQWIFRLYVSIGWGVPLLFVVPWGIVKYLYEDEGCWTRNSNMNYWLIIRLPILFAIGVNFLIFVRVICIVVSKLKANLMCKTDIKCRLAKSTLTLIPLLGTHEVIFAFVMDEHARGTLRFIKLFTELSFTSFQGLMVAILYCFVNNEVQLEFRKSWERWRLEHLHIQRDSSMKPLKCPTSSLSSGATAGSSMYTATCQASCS

SMILES	activity change, negative = inhibition	Potency
CCC(C)(C)n1nnnc1C(c1cc2cc3c(cc2[nH]c1=O)OCO3)N1CCN(C)CC1 (configuration not stated)	inactive: 4.77%	–
COC(=O)c1ccc(CCc2cc(O)ccc2O)cc1	–	inconclusive [inhibitor, single point]
CCn1nc(C(=O)Nc2ccc3nc(C)sc3c2)c2ccccc2c1=O	inactive: 77.9%	–
Cc1cccc(-c2noc(C3CCCCC3)n2)c1	inactive: 0%	–
CC(C)c1ccc(NC(=O)C2Cc3c(-c4ccccc4Oc4ccccc4)ccnc3O2)cc1 (configuration not stated)	–	inconclusive [inhibitor, full curve, poor fit]
COc1ccc(CNC(=O)CC2C[C@H](C(=O)N3CCOCC3)[C@@]3(CCC4CCCC4)c4[nH]c5ccccc5c4CCN3C2=O)cc1OC (some centres not stated)	–	inconclusive [inhibitor, single point]
Cc1ccnc(NC(=O)c2cc(S(=O)(=O)NCc3ccccc3)ccc2C)c1	–	inconclusive [inhibitor, partial curve, poor fit]
CCOC(=O)c1[nH]c2c(c1C)C(=O)CC(c1ccc(N(C)C)cc1)C2 (configuration not stated)	–	inconclusive [inhibitor, partial curve, poor fit]
CCOc1ccc(NC(=O)N2CC3CCCN3c3ccccc32)cc1 (configuration not stated)	–	inconclusive [inhibitor, single point]
CN(C)C(CNC(=O)c1ccc(S(=O)(=O)Nc2cccc(C(F)(F)F)c2)cc1)c1ccco1 (configuration not stated)	–	inconclusive [inhibitor, single point]
CC(C)(C)c1ccc(C(=O)N2[C@H](COCc3ccccc3)C=CS2(=O)=O)cc1	–	inconclusive [inhibitor, single point]
CN(C)CCCNC(=O)/C(=C\c1ccc(-c2ccc(Br)cc2)o1)NC(=O)c1ccccc1	–	inconclusive [inhibitor, partial curve, poor fit]
CCOc1ccc(S(=O)(=O)NCCSCc2ccco2)cc1	–	inconclusive [inhibitor, single point]
CC(=O)N1N=C(c2ccc(Br)cc2)CC1c1cccc([N+](=O)[O-])c1 (configuration not stated)	–	active: 11.2 µM
COC(=O)c1c(C#N)c(N)nc2c1CCCC2	inactive: 15.1%	–
CC(=O)c1ccc(OCc2cc(C(=O)N3CCN(c4ccccc4)CC3C)no2)cc1 (configuration not stated)	–	inconclusive [inhibitor, single point]
COC(=O)c1cc(NC(=O)c2cc(C(C)(C)C)nn2Cc2ccc(F)cc2)ccc1N1CCOCC1	–	active: 3.55 µM
O=C(NC(=S)Nc1ccccc1)c1ccc(-c2ccccc2)cc1	inactive: -1.04%	–
CCOc1ccc(C(=O)Nc2ccc3nc(Nc4cccc(C(F)(F)F)c4)cc(C)c3c2)cc1OCC	inactive: -5.91%	–
CNC(=S)N/N=C/c1c2ccccc2c(Cl)c2ccccc12	–	active: 7.94 µM
CCCCCCOC(=O)c1ccccc1NC(=O)/C=C/C(=O)O	–	inconclusive [inhibitor, partial curve, poor fit]

SMILES	activity change, negative = inhibition	Potency
Cn1c(COc2ccccc2Br)nc2ccccc21	inactive: -13.4%	–
COc1ccc(-c2c(C)nn3c(C(F)(F)F)cc(-c4ccc(C)cc4)nc23)cc1	inactive: 1.9%	–
Cc1c(C)n(CCCN(C)C)c2ncnc(Nc3ccccc3)c12	–	inconclusive [inhibitor, single point]
COc1ccc(C(CC(=O)Nc2cc(Cl)c(OC)cc2OC)N2Cc3ccccc3C2=O)cc1 (configuration not stated)	inactive: 5.68%	–
COc1ccc(-c2ccc(-c3noc(C)n3)c(OC)n2)cc1	inactive: 48.8%	–
NC(=O)c1ccccc1NC(=O)CC12CC3CC(CC(C3)C1)C2	–	inconclusive [inhibitor, partial curve, poor fit]
CC(=O)Nc1ccc(S(=O)(=O)c2c(N)n(CCN3CCOCC3)c3nc4ccccc4nc23)cc1	inactive: 3.8%	–
O=C(Nc1nc2ccccc2s1)C1CC(=O)N(c2ccc(F)cc2)C1 (configuration not stated)	–	inconclusive [inhibitor, partial curve, poor fit]
CCOC(=O)c1sc2nccc(N(C)C)c2c1N=CNOCc1c(F)cccc1Cl	–	inconclusive [inhibitor, single point]
Cc1cn2c(=O)c(S(=O)(=O)Nc3ccc(OC(F)(F)F)cc3)c(C)nc2s1	–	inconclusive [inhibitor, single point]
Cc1cccc2sc(NC(=O)CCNS(=O)(=O)c3cccc4nonc34)nc12	–	inconclusive [inhibitor, full curve, poor fit]
O=C(Nc1ccccc1)Nc1ccc(Cl)c(S(=O)(=O)N2CCOCC2)c1	–	inconclusive [inhibitor, partial curve]
COc1ccc(NC(=O)C(c2ccccc2)N(C)C(=O)/C=C\c2ccc3c(c2)OCO3)cc1 (configuration not stated)	–	inconclusive [inhibitor, partial curve, poor fit]
COc1ccc(N(C(C)C(=O)N/N=C/c2ccc(OC(C)C)cc2)S(C)(=O)=O)cc1 (configuration not stated)	–	inconclusive [inhibitor, single point]
Cc1sc2ncnc(N3CCC(C(=O)NNC(=O)COc4ccccc4Cl)CC3)c2c1C	–	inconclusive [inhibitor, partial curve, poor fit]
Cc1ccc(C(C(=O)NC2CCCCC2)N(CC2CCCO2)C(=O)CNC(=O)c2ccco2)cc1 (configuration not stated)	–	inconclusive [inhibitor, single point]
CC(C)C(Sc1nc(-c2ccccc2)cc(-c2ccccc2)c1C#N)C(=O)O (configuration not stated)	–	inconclusive [inhibitor, single point]
CC(=O)c1cccc(NS(=O)(=O)c2ccc3[nH]c4c(c3c2)CCCCC4)c1	–	inconclusive [inhibitor, single point]
O=C(C[C@H]1C(=O)N(Cc2ccccc2)C[C@@H]1Cc1ccccc1)Nc1ccccc1	–	inconclusive [inhibitor, partial curve, poor fit]
CNC[C@@H](Cc1ccccc1)NC[C@@H](CC1CCCCC1)NCCCc1ccccc1	inactive: 1.19%	–
CC(C)c1ccc(CC(=O)N2CCC2(C)C(=O)Nc2cccc(C#N)c2)cc1 (configuration not stated)	–	inconclusive [inhibitor, single point]
